# Experimental data taken from the supplement of paper PMC12645437, “Orthogonal IMiD-Degron Pairs Induce Selective Protein Degradation in Cells” (ACS Chemical Biology, 2025).
# Some of the results follow.
# Molecular target: no compound (DMSO)
# Experiment: log2 fold change of degron read counts, EGFP-low vs EGFP+ sorted cells; higher = lower degron-EGFP level without compound (poor expression or instability)
# Details: compound: DMSO control; 18 h
# 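Note: jurkat cells carrying a lentiviral library of mutant zinc finger degrons fused to EGFP plus mCherry, mCherry+ cells FACS sorted, degron abundance counted by next-generation sequencing.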
row,Sequence,log2 fold change of degron read counts
1,FLCEVCGAVFTQKGNLLRHIKL,-0.899
2,FYCDICGAAFTQKGNLLRHIKL,-0.904
3,FCCNQCGAPFTQKGNLLRHIKL,-0.275
4,FYCPICGHSFTQKGNLLRHIKL,-0.855
5,FACEVCGAQFTQKGNLLRHIKL,-2.28
6,FWCEICGRFFTQKGNLLRHIKL,1.28
7,FNCEICGADFTQKGNLLRHIKL,-1.57
8,FRCNQCGAGFTQKGNLLRHIKL,-1.17
9,LWCNQCGFVCTQKGNLLRHIKL,2
10,FTCNQCGRNFTQKGNLLRHIKL,-0.0796
11,FICEQCGAEFTQKGNLLRHIKL,-2.11
12,FSCEVCGAKFTQKGNLLRHIKL,-2.76
13,FWCNQCGRQFTQKGNLLRHIKL,0.786
14,FYCNICGAWFTQKGNLLRHIKL,1.15
15,LNCNQCGFRCTQKGNLLRHIKL,1.08
16,FICNICGASFTQKGNLLRHIKL,-1.66
17,FMCDVCGAVFTQKGNLLRHIKL,-0.859
18,FHCPICGACFTQKGNLLRHIKL,0.136
19,FFCSVCGHTFTQKGNLLRHIKL,-0.0991
20,FHCDICGAIFTQKGNLLRHIKL,-0.887
21,FYCEICGRVFTQKGNLLRHIKL,-0.559
22,LICEICGFYCTQKGNLLRHIKL,1.29
23,FFCSVCGHCFTQKGNLLRHIKL,0.86
24,FDCPQCGAPFTQKGNLLRHIKL,-1.88
25,FVCNVCGAEFTQKGNLLRHIKL,-2.02

row,Sequence,log2 fold change of degron read counts
1,FRCPICGANFTQKGNLLRHIKL,-0.424
2,FYCEVCGAPFTQKGNLLRHIKL,-0.813
3,FYCNVCGADFTQKGNLLRHIKL,-0.567
4,FACNQCGHCFTQKGNLLRHIKL,-0.0737
5,LHCPICGFSCTQKGNLLRHIKL,0.696
6,FHCEICGHTFTQKGNLLRHIKL,-1.38
7,LVCNQCGFWCTQKGNLLRHIKL,1.14
8,FMCEQCGAWFTQKGNLLRHIKL,-0.271
9,FFCPQCGAAFTQKGNLLRHIKL,-0.523
10,FCCNQCGRYFTQKGNLLRHIKL,0.666
11,FWCNQCGAKFTQKGNLLRHIKL,0.456
12,FWCDQCGARFTQKGNLLRHIKL,-0.724
13,FHCSVCGHTFTQKGNLLRHIKL,-0.391
14,FDCEQCGAWFTQKGNLLRHIKL,-0.237
15,FCCPICGRGFTQKGNLLRHIKL,0.279
16,FKCSVCGHFFTQKGNLLRHIKL,0.201
17,FNCSVCGHYFTQKGNLLRHIKL,0.741
18,LACEICGFGCTQKGNLLRHIKL,0.0805
19,FVCDQCGAKFTQKGNLLRHIKL,-2.71
20,FFCNQCGHQFTQKGNLLRHIKL,-0.145
21,FLCSVCGHHFTQKGNLLRHIKL,0.0624
22,FRCNQCGHGFTQKGNLLRHIKL,-0.0388
23,FMCDICGASFTQKGNLLRHIKL,-0.928
24,FTCPICGHSFTQKGNLLRHIKL,-1.22
25,FQCPVCGASFTQKGNLLRHIKL,-0.0433
